Sequences and labels used below:
B1: Hsp27 IPV H peptide (EITIPVTHE) [human] / Hsp27 alpha-crystallin domain (ACD, […]) [human] (parent complex)
chain 1: EITIPVTHE
chain 2: not shown

Results on two variants are retold here after article PMC6212398 (2018).

In this test the parent is B1. The experiment in a line: ITC; parent: 1.15e+04 nM. Background: ITC needs no label: the signal is the heat of the interaction.
One may read the Kd as the free concentration of one partner at which half of the binding sites on the other are occupied at equilibrium, for simple one-to-one binding. For the variant chain 1 I2A, the Kd was determined as 12.6 µM.
In the case of chain 1 T7A, the dissociation constant (Kd) was 9.43 µM.
